In experiment [1] the test system is HSkMC (human skeletal muscle cells). Description: cytotoxicity call (relative viability < 0.9). As to conditions: 10 µM.
For experiment [2], the system named is HepG2. Put plainly: cytotoxicity call (relative viability < 0.9). As to conditions: 10 µM.
The test system of experiment [3] is S. aureus RN4220. Description: growth inhibition call (relative growth <= 0.2). As to conditions: 50 µM.

Some of the results follow.

As for `COc1ccc(CN(C)C[C@@H]2Oc3c(NC(=O)C4CCOCC4)cccc3C(=O)N([C@@H](C)CO)C[C@H]2C)cc1`, the cytotoxicity call in experiment [1] and in experiment [2] was “inactive” in each case. For the same compound, in experiment [3], the growth inhibition call is “inactive”.

With `C[C@@H](O)COC[C@H]1O[C@@H]2O[C@H]3[C@H](O)[C@@H](O)[C@@H](O[C@H]4[C@H](O)[C@@H](O)[C@@H](O[C@H]5[C@H](O)[C@@H](O)[C@@H](O[C@H]6[C@H](O)[C@@H](O)[C@@H](O[C@H]7[C@H](O)[C@@H](O)[C@@H](O[C@H]8[C@H](O)[C@@H](O)[C@@H](O[C@H]1[C@H](O)[C@H]2O)O[C@@H]8COC[C@@H](C)O)O[C@@H]7COC[C@@H](C)O)O[C@@H]6COC[C@@H](C)O)O[C@@H]5COC[C@@H](C)O)O[C@@H]4COC[C@@H](C)O)O[C@@H]3COC[C@@H](C)O`, the cytotoxicity call in experiment [1] and in experiment [2] was “inactive” throughout. In experiment [3], the growth inhibition call was “inactive”.

Regarding `CNC[C@H]1OCCCC[C@@H](C)Oc2ccc(NS(=O)(=O)c3cn(C)cn3)cc2C(=O)N([C@@H](C)CO)C[C@@H]1C`, the cytotoxicity call in experiment [1] and in experiment [2] was “inactive” throughout. The growth inhibition call in experiment [3] is “inactive”.

In the case of `C[C@@H]1CN([C@H](C)CO)C(=O)c2cc(NS(=O)(=O)c3ccc(Cl)cc3)ccc2O[C@@H](C)CCCCO[C@H]1CN(C)C(=O)C1CCCCC1`, the cytotoxicity call in experiment [1] was “inactive”. Moreover, the cytotoxicity call in experiment [2] was “active”. In experiment [3], the growth inhibition call is “inactive”.

With `COc1cc([C@@H](O)[C@@H](CO[C@@H]2O[C@H](CO)[C@@H](O)[C@H](O)[C@H]2O)Oc2ccc(/C=C/CO)cc2OC)ccc1O`, the cytotoxicity call in experiment [1] and in experiment [2] was “inactive” throughout. In experiment [3], the growth inhibition call is “inactive”.

As for `Cc1nn(C[C@@H](O)Cn2cnc3c2c(=O)n(C)c(=O)n3C)c(C)c1Br`, the cytotoxicity call in experiment [1] and in experiment [2] was “inactive” each time. In experiment [3], the growth inhibition call was “inactive”.

Turning to `CCCCNC(=O)NS(=O)(=O)c1ccc(C)cc1`, the cytotoxicity call in experiment [1] and in experiment [2] was “inactive” each time. In addition, the growth inhibition call in experiment [3] is “inactive”.

On to `COc1ccc(NC(=O)Nc2cccc3c2O[C@H](CN(C)Cc2ccc(-c4ccccc4)cc2)[C@H](C)CN([C@@H](C)CO)C3=O)cc1`, for which the cytotoxicity call in experiment [1] was “inactive”. For the same compound, the cytotoxicity call in experiment [2] was “active”. Besides, the growth inhibition call in experiment [3] was “inactive”.

Take `Cc1ccc(S(=O)(=O)Nc2cccc3c2O[C@@H](CN(C)S(=O)(=O)c2ccc(F)cc2)[C@@H](C)CN([C@@H](C)CO)C3=O)cc1`: the cytotoxicity call in experiment [1] and in experiment [2] was “inactive” throughout. Besides, in experiment [3], the growth inhibition call is “inactive”.

Turning to `N#C[C@H](N)c1ccc(Cl)cc1`, the cytotoxicity call in experiment [1] and in experiment [2] was “inactive” each time. Also, the growth inhibition call in experiment [3] is “inactive”.

For the compound `O=C(Cc1ccccn1)NCC[C@@H]1CC[C@H](NC(=O)CN2CCOCC2)[C@H](CO)O1`, the cytotoxicity call in experiment [1] and in experiment [2] was “inactive” in each case. For the same compound, in experiment [3], the growth inhibition call was “inactive”.

`C[C@@H]1CCCCO[C@@H](CN(C)C(=O)Nc2ccc3c(c2)OCO3)[C@H](C)CN([C@@H](C)CO)C(=O)c2cc(NS(=O)(=O)c3ccc(Cl)cc3)ccc2O1`: the cytotoxicity call in experiment [1] and in experiment [2] was “inactive” in each case. In experiment [3], the growth inhibition call was “inactive”.

`C[C@@H]1CN([C@H](C)CO)C(=O)Cc2cc(NS(=O)(=O)c3ccccc3)ccc2O[C@@H]1CN(C)S(=O)(=O)c1ccccc1`: the cytotoxicity call in experiment [1] and in experiment [2] was “inactive” in each case. In experiment [3], the growth inhibition call is “inactive”.

As to `C[C@@H](NC(=O)C[C@@H]1C=C[C@@H](NC(=O)CN2CCOCC2)[C@@H](CO)O1)c1ccccc1`, the cytotoxicity call in experiment [1] and in experiment [2] was “inactive” throughout. Besides, in experiment [3], the growth inhibition call is “inactive”.

For the compound `COc1ccc(NC(=O)N(C)C[C@H]2Oc3c(NC(=O)c4ccc(-c5nccs5)cc4)cccc3C(=O)N([C@H](C)CO)C[C@@H]2C)cc1`, the cytotoxicity call in experiment [1] and in experiment [2] was “inactive” in each case. Further, the growth inhibition call in experiment [3] is “inactive”.

With `C[C@@H]1CN([C@H](C)CO)C(=O)c2cc(NC(=O)CCCCCC(=O)Nc3ccccc3N)ccc2O[C@H]1CN(C)Cc1ccc(-c2ccccc2)cc1`, the cytotoxicity call in experiment [1] and in experiment [2] was “active” in each case. Moreover, the growth inhibition call in experiment [3] was “inactive”.

As for `NCCCC[C@H](N)C(=O)O`, the cytotoxicity call in experiment [1] and in experiment [2] was “inactive” each time. Also, the growth inhibition call in experiment [3] is “inactive”.

On to `C[C@H](CO)N1C[C@H](C)[C@H](CN(C)C(=O)Nc2ccc(F)cc2)Oc2ncc(C#CC(C)(C)O)cc2C1=O`, for which the cytotoxicity call in experiment [1] and in experiment [2] was “inactive” each time. Moreover, the growth inhibition call in experiment [3] is “inactive”.

`C[C@H](CO)N1C[C@H](C)[C@@H](CN(C)Cc2ccc(C(=O)O)cc2)Oc2ccc(NS(C)(=O)=O)cc2C1=O`: the cytotoxicity call in experiment [1] and in experiment [2] was “inactive” each time. Further, in experiment [3], the growth inhibition call is “inactive”.

Turning to `C[C@@H]1CCCCO[C@@H](CN(C)Cc2ccc(C(F)(F)F)cc2)[C@H](C)CN([C@@H](C)CO)C(=O)c2cc(NS(C)(=O)=O)ccc2O1`, the cytotoxicity call in experiment [1] and in experiment [2] was “inactive” each time. In experiment [3], the growth inhibition call was “inactive”.

As to `Cc1noc(C)c1NC(=O)N(C)C[C@@H]1Oc2ccc(NS(=O)(=O)c3cn(C)cn3)cc2CC(=O)N([C@H](C)CO)C[C@@H]1C`, the cytotoxicity call in experiment [1] and in experiment [2] was “inactive” throughout. In experiment [3], the growth inhibition call is “inactive”.

Regarding `Cc1cccc(C)c1OCC(=O)NC(Cc1ccccc1)C(O)CC(Cc1ccccc1)NC(=O)C(C(C)C)N1CCCNC1=O` (stereo not drawn), the cytotoxicity call in experiment [1] and in experiment [2] was “inactive” each time. Further, the growth inhibition call in experiment [3] was “inactive”.

In the case of `CC(C)c1c(O)c(-c2cc3c(c(C(C)C)c2O)CCC2C(C)(C)CCCC32C)cc2c1CCC1C(C)(C)CCCC21C` (stereo not drawn), the cytotoxicity call in experiment [1] and in experiment [2] was “inactive” each time. Moreover, the growth inhibition call in experiment [3] is “inactive”.

Take `CO[C@@H](CN(C)C(=O)c1ccc2c(c1)OCO2)[C@@H](C)CN([C@H](C)CO)S(=O)(=O)c1ccc(Cl)cc1`: the cytotoxicity call in experiment [1] and in experiment [2] was “inactive” in each case. Further, in experiment [3], the growth inhibition call is “inactive”.

Consider `CC(C)NC(=O)Nc1ccc2c(c1)CC(=O)N([C@H](C)CO)C[C@@H](C)[C@H](CN(C)Cc1ccc3c(c1)OCO3)O2`, for which the cytotoxicity call in experiment [1] and in experiment [2] was “inactive” each time. The growth inhibition call in experiment [3] is “inactive”.

Consider `C[C@@H]1CN([C@H](C)CO)C(=O)Cc2cc(NS(=O)(=O)c3cn(C)cn3)ccc2O[C@@H]1CN(C)C(=O)Nc1ccc2c(c1)OCO2`, for which the cytotoxicity call in experiment [1] and in experiment [2] was “inactive” each time. Also, the growth inhibition call in experiment [3] is “inactive”.

For the origin of these results see the antibiotic and cytotoxicity screens of Wong et al. (2023).
